Experimental data from US11278595B2, “Peptides comprising non-natural amino acids and methods of making and using the same” (Longevity Biotech, Inc., priority 2013, dated 2022).
Read-outs that look alike come from different tables or passages of the source. Part of at least one peptide drawing is inferred or uncertain, most often the ends. Numbered stars: 1 amine (or outer) side, 2 acyl side, 3 side chain; on linkers, the order of the positions; unused ones are H or OH. Square brackets hold non-standard residues; d marks the D form. Peptide text beside a SMILES is read from it. ξ: configuration not given here. ξ(4-Aminopyrrolidine-3-CO) = O=C(C1CNCC1N[*:1])[*:2]; β3hY = N[C@H](CC(=O)O)Cc1ccc(O)cc1; β3hT = C[C@@H](O)[C@H](N)CC(=O)O; β3hQ = NC(=O)CC[C@H](N)CC(=O)O; X3 = O=C(C1CCCC1N[*:1])[*:2]; β3hL = CC(C)C[C@H](N)CC(=O)O; β3hK = NCCCC[C@H](N)CC(=O)O; β3hV = CC(C)[C@H](N)CC(=O)O; βAla = NCCC(=O)O

How the values were obtained:
[1] = system: dopaminergic neurons (TH+/Nissl+) in the SN; test: Parkinson's disease (MPTP) model, adoptive transfer of splenocytes from drug-treated donors; format: in vivo; conditions: MPTP mice; donors 15 ug/day/5 days; FIG. 5
Procedure: Parkinson's Disease (PD) Model (not prophetic): Male C57/BL6 mice, 8-12 w old, housed in the IACUC approved housing were administered an analog described herein as well as a pharmaceutically acceptable carrier for five days at a dose between (0.1 nM and 100 nM). Thereafter, SPC and Tregs from the mice are harvested and then transferred to another set of MPTP intoxicated mice using the following protocol.
Immediately following the final dose, mice were sacrificed, and single-cell suspensions were prepared from inguinal lymph nodes and spleens. […] As determined by flow cytometric analysis, populations of Tregs and Teffs were consistently […] using this method (12). […]
Mice were postmortem transcardially perfused with PBS, followed by 4% para-formaldehyde (Sigma-Aldrich). […] Fluorojade C (FJ-C) staining (Millipore, Billerica, Mass.) was performed on adjacent sections, according to the manufacturer's protocol, to assess de-generating neurons and was quantified using ImageJ. Overall, dopaminergic neuron survival was assessed 7 d following MPTP intoxication and resolution of cell death processes with polyclonal Abs to mouse tyrosine hydroxylase (TH; 1:1000; EMD Chemicals/Calbiochem, San Diego, Calif.) and were counterstained for Nissl substance by thionin staining. […] Quantitation of striatal TH (1:500; EMD Chemicals/Calbiochem, Gibbstown, N.J.) was performed by densitometric analysis. […]

VIPR1 (vpac1) = biological target: T1, VIPR1 (vpac1) (Homo sapiens, UniProt P32241); test: cell-based cAMP assay (DiscoveRx HitHunter cAMP XS+, cAMP Hunter cell lines), agonist mode; conditions: read-out: EC50 vpac1 (Molar)
T1 sequence (P32241 31-457): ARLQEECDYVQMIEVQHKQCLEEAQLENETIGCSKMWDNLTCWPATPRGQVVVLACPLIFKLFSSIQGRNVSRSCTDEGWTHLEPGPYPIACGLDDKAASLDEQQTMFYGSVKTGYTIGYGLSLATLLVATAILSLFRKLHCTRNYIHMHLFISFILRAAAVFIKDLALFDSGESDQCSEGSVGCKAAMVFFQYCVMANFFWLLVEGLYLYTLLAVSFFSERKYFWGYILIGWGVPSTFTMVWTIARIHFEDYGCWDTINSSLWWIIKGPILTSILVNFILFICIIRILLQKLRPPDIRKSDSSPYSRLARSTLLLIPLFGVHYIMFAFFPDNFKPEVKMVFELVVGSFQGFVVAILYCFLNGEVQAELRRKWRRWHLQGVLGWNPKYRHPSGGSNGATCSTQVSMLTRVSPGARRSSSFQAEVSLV

[2] = system: anti-CD3 stimulated naïve CD4+CD25− T cells; test: Inhibition assay of suppressive function of Treg from treated donor mice; format: cell-based; conditions: compared to PBS Treg populations; 1:1 Treg to responder ratio; donors injected daily/5 days/i.p.
Procedure: Immediately following the final dose, mice were sacrificed, and single-cell suspensions were prepared from inguinal lymph nodes and spleens. CD4+ T cell populations from spleens and lymph nodes were enriched by negative selection with CD4-enrichment columns (R&D Systems, Minneapolis, Minn.), followed by CD25-PE positive selection with AutoMACS (Miltenyi Biotec, Auburn, Calif.). As determined by flow cytometric analysis, populations of Tregs and Teffs were consistently […] using this method (12). T cells were cultured in complete RPMI 1640 (RPMI 1640 [Invitrogen, Carlsbad, Calif.] supplemented with 10% FBS, 2 mM L-gluta-mine, 25 mM HEPES, 1 mM sodium pyruvate, […] nonessential amino acids, […] 2-ME, 100 U/ml penicillin, and […] streptomycin [Mediatech, Manassas, Va.]) in the presence of anti-CD3 (145-2C11; BD Pharmingen, San Diego, Calif.), 4YSyn, or N-4YSyn. […]
To assess whether VIP, LBT-V101 (SEQ ID NO: 22), LBT-V218 (SEQ ID NO: 18) and PBS treated splenocytes (SPC) suppress effector T cell proliferative responses, we evaluated SPC co-cultures from VIP-treated donors for their proliferative capacity in the presence of either anti-CD3. […] To test this hypothesis, we evaluated CD4+CD25+CD62Llow Treg isolated from naïve and VIP-treated mice for their capacity to inhibit CD3-mediated proliferation of CD4+CD25− naïve T cells. […]

[3] = Intraperitoneal glucose tolerance test (IPGTT) in DIO mice; format: in vivo; conditions: subcutaneous, 10 nm/kg, compared to vehicle arm
VIPR2 (vpac2) = biological target: T2, VIPR2 (vpac2) (Homo sapiens, UniProt P41587); test: cell-based cAMP assay (DiscoveRx HitHunter cAMP XS+, cAMP Hunter cell lines), agonist mode; conditions: read-out: EC50 vpac2 (Molar)
T2 sequence (P41587 24-438): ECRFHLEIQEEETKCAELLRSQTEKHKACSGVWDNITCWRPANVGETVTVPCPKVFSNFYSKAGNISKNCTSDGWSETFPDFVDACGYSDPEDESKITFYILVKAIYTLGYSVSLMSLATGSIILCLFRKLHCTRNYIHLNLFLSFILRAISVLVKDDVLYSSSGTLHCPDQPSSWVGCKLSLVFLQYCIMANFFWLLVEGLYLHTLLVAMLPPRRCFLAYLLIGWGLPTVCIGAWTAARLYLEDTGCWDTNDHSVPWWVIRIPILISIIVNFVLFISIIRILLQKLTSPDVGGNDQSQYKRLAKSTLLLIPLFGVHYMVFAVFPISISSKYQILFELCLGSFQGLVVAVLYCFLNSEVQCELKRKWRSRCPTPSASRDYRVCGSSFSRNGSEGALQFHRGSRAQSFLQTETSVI

VIPR1 = biological target: T3, VIPR1 (Homo sapiens, UniProt P32241); test: In-vitro internalization assay (PathHunter eXpress CHO-K1 VIPR1 cells); format: cell-based; conditions: FIG. 2, CHO-K1 VIPR1 cells; read-out: EC50 of ligand mediated receptor internalization (relative chemiluminescent signal)
T3 construct: host or cells: CHO-K1 (PathHunter eXpress)
T3 sequence (P32241 31-457): T1 sequence (P32241 31-457)

[4] = Table 2, VPAC2 selective analogs
[5] = Table 3, VPAC1 selective analogs

Compound | neuroprotection after adoptive transfer of splenocytes from drug-treated donors [1] | EC50 (VIPR1 (vpac1); [4]) | suppressive capacity of Treg on T cell proliferation [2] | glucose control in IP glucose tolerance test [3] | EC50 (VIPR2 (vpac2); [4]) | EC50 (VIPR1) | EC50 (VIPR1 (vpac1); [5]) | EC50 (VIPR2 (vpac2); [5])
CC(=O)N[C@@H](Cc1c[nH]cn1)C(=O)NC1CCCC1C(=O)N[C@@H](CC(=O)O)C(=O)N[C@@H](C)C(=O)NC1CCCC1C(=O)N[C@@H](Cc1ccccc1)C(=O)N[C@H](C(=O)N[C@@H](CCC(=O)O)C(=O)NC1CCCC1C(=O)N[C@H](CC(=O)N[C@H](C(=O)N[C@@H](CCCCN)C(=O)N[C@@H](CC(C)C)C(=O)N[C@@H](CCCNC(=N)N)C(=O)N[C@@H](CCCCN)C(=O)N[C@@H](CCC(N)=O)CC(=O)N[C@@H](CC(C)C)C(=O)N[C@@H](C)C(=O)N[C@@H](C)C(=O)NC1CNCC1C(=O)N[C@@H](CCCCN)C(=O)N[C@@H](Cc1ccc(O)cc1)C(=O)NC1CCCC1C(=O)N[C@@H](CC(N)=O)C(=O)N[C@@H](CC(=O)O)C(=O)N[C@@H](CC(C)C)C(=O)N[C@@H](CCCCN)CC(=O)N[C@@H](CCCCN)C(=O)NCC(=O)NCCC(=O)N[C@H](C(N)=O)[C@@H](C)O)[C@@H](C)O)Cc1ccc(O)cc1)[C@@H](C)O (stereo partly drawn) [LBT-V218, Ac-HxDAxFTExyTKLRKqLAAzKYxNDLkKGgT] (Ac-H[X3]DA[X3]FTE[X3][β3hY]TKLRK[β3hQ]LAA[ξ(4-Aminopyrrolidine-3-CO)]KY[X3]NDL[β3hK]KG[βAla]T-NH2) | neuroprotective | > 1 µM | enhanced suppressive capacity | modest glucose control | 0.00102 µM |  |  | 
CC[C@H](C)[C@H](NC(=O)[C@H](C)NC(=O)[C@H](CC(N)=O)NC(=O)C[C@H](CC(C)C)NC(=O)[C@H](Cc1ccc(O)cc1)NC(=O)[C@H](CCCCN)NC(=O)[C@H](CCCCN)NC(=O)C[C@@H](NC(=O)[C@H](C)NC(=O)[C@H](CC(C)C)NC(=O)[C@H](CCC(N)=O)NC(=O)C[C@H](CCCCN)NC(=O)[C@H](CCCNC(=N)N)NC(=O)[C@H](CC(C)C)NC(=O)[C@H](CCCNC(=N)N)NC(=O)C[C@@H](NC(=O)[C@H](Cc1ccc(O)cc1)NC(=O)[C@H](CC(N)=O)NC(=O)[C@H](CC(=O)O)NC(=O)[C@@H](NC(=O)[C@H](Cc1ccccc1)NC(=O)[C@@H](NC(=O)[C@H](C)NC(=O)[C@H](CC(=O)O)NC(=O)[C@H](CO)NC(=O)[C@@H](N)Cc1c[nH]cn1)C(C)C)[C@@H](C)O)[C@@H](C)O)C(C)C)C(=O)N[C@H](CC(=O)N[C@@H](CC(N)=O)C(N)=O)CC(C)C [LBT-V101, HSDAVFTDNYtRLRkQLAvKKYlNAIlN] (H-HSDAVFTDNY[β3hT]RLR[β3hK]QLA[β3hV]KKY[β3hL]NAI[β3hL]N-NH2; N-terminus assumed) | neuroprotective |  | enhanced suppressive capacity |  |  | 0.0102 µM | 0.00217 µM | 8260 µM
